# In the supplement of paper PMC8728848:
# The other results are listed elsewhere or left out.
# B1: CLECSF8 (Mus musculus), Q9Z2H6 (protein)
# chain: HYFLRWTRGSVVKLSDYHTRVTCIREEPQPGATGGTWTCCPVSWRAFQSNCYFPLNDNQTWHESERNCSGMSSHLVTINTEAEQNFVTQLLDKRFSYFLGLADENVEGQWQWVDKTPFNPHTVFWEKGESNDFMEEDCVVLVHVHEKWVWNDFPCHFEVRRICKLPGITFNWKPSK
# What was measured:
# Assay in all cases: glycan array binding signal (z-score within array); higher = stronger binding
# Settings in all cases: glycan notation: IUPAC condensed, linker removed
# [1] = target: GlcA(b1-3)Gal
# Summary of the method: (§1)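 Glycan array data were curated from 3228 arrays in the Consortium for Functional Glycomics database and kept only where the protein sequence was available. Glycan names were converted to IUPAC-condensed notation, and columns mapping to the same glycan were averaged. The binding signal is a within-array Z-score, averaged across arrays of the same protein sequence at different concentrations or buffers and across linkers. Negative Z-scores can be read as non-binding.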
# [2] = target: GlcA(b1-3)Gal(b1-3)GlcNAc
# Summary of the method: as §1
# [3] = target: GlcA(b1-3)Gal(b1-4)GlcNAc(b1-3)Gal(b1-4)Glc
# Summary of the method: as §1
# [4] = target: GlcA(b1-3)Gal(b1-4)GlcNAc(b1-3)Gal(b1-4)GlcNAc(b1-3)Gal(b1-4)Glc
# Summary of the method: as §1
# [5] = target: GlcA(b1-3)GlcNAc(b1-4)GlcA(b1-3)GlcNAc
# Summary of the method: as §1
# [6] = target: GlcA(b1-3)GlcNAc(b1-4)GlcA(b1-3)GlcNAc(b1-4)GlcA(b1-3)GlcNAc(b1-4)GlcA(b1-3)GlcNAc(b1-4)GlcA(b1-3)GlcNAc(b1-4)GlcA(b1-3)GlcNAc(b1-4)GlcA(b1-3)GlcNAc
# Summary of the method: as §1
# [7] = target: GlcA3S(b1-3)Gal
# Summary of the method: as §1
# [8] = target: GlcA3S(b1-3)Gal(b1-4)GlcNAc(b1-3)Gal(b1-4)Glc
# Summary of the method: as §1
# [9] = target: GlcA3S(b1-3)Gal(b1-4)GlcNAc(b1-3)Gal(b1-4)GlcNAc(b1-3)Gal(b1-4)Glc
# Summary of the method: as §1
# [10] = target: GlcNAc(a1-4)Gal
# Summary of the method: as §1
# [11] = target: GlcNAc(a1-4)Gal(b1-3)[Fuc(a1-2)]Gal
# Summary of the method: as §1
# [12] = target: GlcNAc(b1-2)Man(a1-3)[GlcNAc(b1-2)Man(a1-6)]Man(b1-4)GlcNAc(b1-4)GlcNAc
# Summary of the method: as §1
# [13] = target: GlcNAc(b1-2)Man(a1-3)[GlcNAc(b1-2)Man(a1-6)]Man(b1-4)GlcNAc(b1-4)[Fuc(a1-6)]GlcNAc
# Summary of the method: as §1
# [14] = target: GlcNAc(b1-2)Man(a1-3)[GlcNAc(b1-2)Man(a1-6)][GlcNAc(b1-4)]Man(b1-4)GlcNAc(b1-4)GlcNAc
# Summary of the method: as §1
# [15] = target: GlcNAc(b1-2)Man(a1-3)[Man(a1-3)[Man(a1-6)]Man(a1-6)][GlcNAc(b1-4)]Man(b1-4)GlcNAc(b1-4)GlcNAc
# Summary of the method: as §1
# [16] = target: GlcNAc(b1-2)[GlcNAc(b1-4)]Man(a1-3)[GlcNAc(b1-2)Man(a1-6)][GlcNAc(b1-4)]Man(b1-4)GlcNAc(b1-4)GlcNAc
# Summary of the method: as §1
# [17] = target: GlcNAc(b1-2)[GlcNAc(b1-4)]Man(a1-3)[GlcNAc(b1-2)[GlcNAc(b1-4)][GlcNAc(b1-6)]Man(a1-6)][GlcNAc(b1-4)]Man(b1-4)GlcNAc(b1-4)GlcNAc
# Summary of the method: as §1
# [18] = target: GlcNAc(b1-2)[GlcNAc(b1-4)]Man(a1-3)[GlcNAc(b1-2)[GlcNAc(b1-6)]Man(a1-6)]Man(b1-4)GlcNAc(b1-4)GlcNAc
# Summary of the method: as §1
# [19] = target: GlcNAc(b1-3)Fuc
# Summary of the method: as §1
# [20] = target: GlcNAc(b1-3)Gal(b1-4)Glc
# Summary of the method: as §1
# [21] = target: GlcNAc(b1-3)[GlcNAc(b1-6)]Gal(b1-4)GlcNAc(b1-3)[GlcNAc(b1-6)]Gal(b1-4)GlcNAc(b1-3)Gal(b1-4)Glc
# Summary of the method: as §1
# [22] = target: GlcNAc(b1-4)GlcNAc
# Summary of the method: as §1
# [23] = target: GlcNAc(b1-4)GlcNAc(b1-4)GlcNAc
# Summary of the method: as §1
# [24] = target: HexA(a1-3)GalNAc4S(b1-4)GlcA(b1-3)GalNAc4S
# Summary of the method: as §1
# [25] = target: HexA(a1-3)GalNAc4S(b1-4)GlcA(b1-3)GalNAc4S(b1-4)GlcA(b1-3)GalNAc4S(b1-4)GlcA(b1-3)GalNAc4S(b1-4)GlcA(b1-3)GalNAc4S(b1-4)GlcA(b1-3)GalNAc4S(b1-4)GlcA(b1-3)GalNAc4S
# Summary of the method: as §1
# [26] = target: HexA(a1-3)GalNAc4S(b1-4)IdoA(a1-3)GalNAc4S
# Summary of the method: as §1
# [27] = target: HexA(a1-3)GalNAc4S(b1-4)IdoA(a1-3)GalNAc4S(b1-4)IdoA(a1-3)GalNAc4S(b1-4)IdoA(a1-3)GalNAc4S(b1-4)IdoA(a1-3)GalNAc4S(b1-4)IdoA(a1-3)GalNAc4S(b1-4)IdoA(a1-3)GalNAc4S
# Summary of the method: as §1
# [28] = target: HexA(a1-3)GalNAc6S(b1-4)GlcA(b1-3)GalNAc6S
# Summary of the method: as §1
# [29] = target: HexA(a1-3)GalNAc6S(b1-4)GlcA(b1-3)GalNAc6S(b1-4)GlcA(b1-3)GalNAc6S(b1-4)GlcA(b1-3)GalNAc6S(b1-4)GlcA(b1-3)GalNAc6S(b1-4)GlcA(b1-3)GalNAc6S(b1-4)GlcA(b1-3)GalNAc6S
# Summary of the method: as §1
# [30] = target: HexA(a1-4)GlcNAc(a1-4)HexA(a1-4)GlcNAc(a1-4)HexA(a1-4)GlcNAc(a1-4)HexA(a1-4)Man
# Summary of the method: as §1
# [31] = target: HexA2S(a1-4)GlcNS6S
# Summary of the method: as §1
# [32] = target: Kdn(a2-3)[GalNAc(b1-4)]Gal(b1-3)GlcNAc
# Summary of the method: as §1
# [33] = target: Man(a1-2)Man
# Summary of the method: as §1
# [34] = target: Man(a1-2)Man(a1-2)Man(a1-3)[Man(a1-2)Man(a1-3)[Man(a1-2)Man(a1-6)]Man(a1-6)]Man(b1-4)GlcNAc(b1-4)GlcNAc
# Summary of the method: as §1
# [35] = target: Man(a1-2)Man(a1-2)Man(a1-3)[Man(a1-2)Man(a1-6)[Man(a1-3)]Man(a1-6)]Man(b1-4)GlcNAc(b1-4)GlcNAc
# Summary of the method: as §1
# [36] = target: Man(a1-2)Man(a1-2)Man(a1-3)[Man(a1-3)[Man(a1-6)]Man(a1-6)]Man(b1-4)GlcNAc(b1-4)GlcNAc
# Summary of the method: as §1
# [37] = target: Man(a1-2)Man(a1-3)[Man(a1-2)Man(a1-6)[Man(a1-3)]Man(a1-6)]Man(b1-4)GlcNAc(b1-4)GlcNAc
# Summary of the method: as §1
# [38] = target: Man(a1-2)Man(a1-3)[Man(a1-3)[Man(a1-6)]Man(a1-6)]Man(b1-4)GlcNAc(b1-4)GlcNAc
# Summary of the method: as §1
# [39] = target: Man(a1-3)Man
# Summary of the method: as §1
# [40] = target: Man(a1-3)Man(a1-6)[Man(a1-3)]Man(b1-4)GlcNAc(b1-4)GlcNAc
# Summary of the method: as §1
# [41] = target: Man(a1-3)Man(b1-4)GlcNAc
# Summary of the method: as §1
# [42] = target: Man(a1-3)[Man(a1-6)]Man
# Summary of the method: as §1
# [43] = target: Man(a1-3)[Man(a1-6)]Man(a1-6)Man(b1-4)GlcNAc(b1-4)GlcNAc
# Summary of the method: as §1
# [44] = target: Man(a1-3)[Man(a1-6)]Man(a1-6)[Man(a1-3)]Man
# Summary of the method: as §1
# [45] = target: Man(a1-3)[Man(a1-6)]Man(a1-6)[Man(a1-3)]Man(b1-4)GlcNAc(b1-4)GlcNAc
# Summary of the method: as §1
# [46] = target: Man(a1-3)[Man(a1-6)]Man(b1-4)GlcNAc(b1-4)GlcNAc
# Summary of the method: as §1
# [47] = target: Man(a1-3)[Man(a1-6)]Man(b1-4)GlcNAc(b1-4)[Fuc(a1-6)]GlcNAc
# Summary of the method: as §1
# [48] = target: Man(a1-6)Man
# Summary of the method: as §1
# [49] = target: Man(a1-6)Man(b1-4)GlcNAc(b1-4)GlcNAc
# Summary of the method: as §1
# [50] = target: Man(b1-4)GlcNAc
# Summary of the method: as §1
# [51] = target: Man(b1-4)Man(b1-4)Man(b1-4)Man
# Summary of the method: as §1
# [52] = target: Man(b1-4)Man(b1-4)Man(b1-4)Man(b1-4)Man
# Summary of the method: as §1
# [53] = target: Man(b1-4)Man(b1-4)Man(b1-4)Man(b1-4)Man(b1-4)Man
# Summary of the method: as §1
# [54] = target: Man6P(a1-3)Man(a1-3)Man(a1-3)Man(a1-2)Man
# Summary of the method: as §1
# [55] = target: Neu(a2-3)Gal(b1-4)Glc
# Summary of the method: as §1
# [56] = target: Neu(a2-3)Gal(b1-4)GlcNAc(b1-3)Gal(b1-4)[Fuc(a1-3)]GlcNAc(b1-3)Gal(b1-4)Glc
# Summary of the method: as §1
# [57] = target: Neu(a2-3)Gal(b1-4)GlcNAc6S(b1-3)Gal(b1-4)Glc
# Summary of the method: as §1
# [58] = target: Neu(a2-3)Gal(b1-4)[Fuc(a1-3)]GlcNAc(b1-3)Gal(b1-4)Glc
# Summary of the method: as §1
# [59] = target: Neu(a2-3)Gal(b1-4)[Fuc(a1-3)]GlcNAc6S(b1-3)Gal(b1-4)Glc
# Summary of the method: as §1
# [60] = target: Neu(a2-3)Gal6S(b1-4)[Fuc(a1-3)]GlcN(b1-3)Gal(b1-4)Glc
# Summary of the method: as §1
# [61] = target: Neu(a2-6)Gal(b1-4)Glc
# Summary of the method: as §1
binder,measurement,setting,value
B1,glycan array binding signal (z-score),[1],0.975
same,glycan array binding signal (z-score),[2],-0.424
same,glycan array binding signal (z-score),[3],3.5
same,glycan array binding signal (z-score),[4],1
same,glycan array binding signal (z-score),[5],0.087
same,glycan array binding signal (z-score),[6],0.54
same,glycan array binding signal (z-score),[7],-0.424
same,glycan array binding signal (z-score),[8],-0.424
same,glycan array binding signal (z-score),[9],0.142
same,glycan array binding signal (z-score),[10],-0.424
same,glycan array binding signal (z-score),[11],-0.424
same,glycan array binding signal (z-score),[12],-0.424
same,glycan array binding signal (z-score),[13],-0.424
same,glycan array binding signal (z-score),[14],-0.424
same,glycan array binding signal (z-score),[15],-0.424
same,glycan array binding signal (z-score),[16],-0.424
same,glycan array binding signal (z-score),[17],-0.424
same,glycan array binding signal (z-score),[18],-0.424
same,glycan array binding signal (z-score),[19],-0.424
same,glycan array binding signal (z-score),[20],1.74
same,glycan array binding signal (z-score),[21],-0.424
same,glycan array binding signal (z-score),[22],1.76
same,glycan array binding signal (z-score),[23],1.74
same,glycan array binding signal (z-score),[24],0.302
same,glycan array binding signal (z-score),[25],0.056
same,glycan array binding signal (z-score),[26],-0.393
same,glycan array binding signal (z-score),[27],0.136
same,glycan array binding signal (z-score),[28],0.041
same,glycan array binding signal (z-score),[29],0.809
same,glycan array binding signal (z-score),[30],0.453
same,glycan array binding signal (z-score),[31],-0.424
same,glycan array binding signal (z-score),[32],-0.424
same,glycan array binding signal (z-score),[33],1
same,glycan array binding signal (z-score),[34],-0.424
same,glycan array binding signal (z-score),[35],-0.424
same,glycan array binding signal (z-score),[36],-0.424
same,glycan array binding signal (z-score),[37],-0.424
same,glycan array binding signal (z-score),[38],-0.424
same,glycan array binding signal (z-score),[39],0.873
same,glycan array binding signal (z-score),[40],-0.424
same,glycan array binding signal (z-score),[41],3.04
same,glycan array binding signal (z-score),[42],1.89
same,glycan array binding signal (z-score),[43],-0.424
same,glycan array binding signal (z-score),[44],4.16
same,glycan array binding signal (z-score),[45],-0.424
same,glycan array binding signal (z-score),[46],-0.424
same,glycan array binding signal (z-score),[47],-0.424
same,glycan array binding signal (z-score),[48],1.46
same,glycan array binding signal (z-score),[49],-0.424
same,glycan array binding signal (z-score),[50],-0.424
same,glycan array binding signal (z-score),[51],1.07
same,glycan array binding signal (z-score),[52],1.46
same,glycan array binding signal (z-score),[53],1.18
same,glycan array binding signal (z-score),[54],-0.424
same,glycan array binding signal (z-score),[55],-0.424
same,glycan array binding signal (z-score),[56],-0.424
same,glycan array binding signal (z-score),[57],1.14
same,glycan array binding signal (z-score),[58],-0.424
same,glycan array binding signal (z-score),[59],0.763
same,glycan array binding signal (z-score),[60],-0.424
same,glycan array binding signal (z-score),[61],-0.424
